Among all 52,000 compounds or so, about 1,700 (3.3%) were called active. No stated cut-off is given here; in the data, active means survival mostly below about 52% (no sharp cut-off); inactive means mostly above about 56%. The list shows a part of the results.
Tested on: Wild type
Test: S. aureus survival, RN4220 and DeltatarO strains – OD600, teichoic acid synthesis inhibitors, primary screen (AID 463173)
Conditions: S. aureus RN4220 wild type/DeltatarO growth, OD600, 18 h, active compounds read low, screened at 18.75 µg/mL (by protocol)

How did the survival turn out when `CCc1ccc(NC(=O)CSc2nc3ccccc3c(=O)n2CCC(=O)NC2CCCCC2)cc1` was run?
Its survival is inactive: 76%.

How did the survival turn out when `CCC(Sc1nc2cc3c(cc2c(=O)n1CCCC(=O)NCc1ccc2c(c1)OCO2)OCO3)C(=O)NCCCOC` (centres undefined) was run?
The survival was inactive: 64%.

Which survival does the source give for `CCC(=O)N1c2ccc(S(=O)(=O)N3CCCCCC3)cc2CC1C` (centres undefined) here?
The survival was inactive: 68%.

For `COC(=O)c1cc2oc3ccccc3c2n1CC(=O)Nc1ccc(N(C)C)cc1`, which survival is on record?
Its survival is inactive: 70%.

With `Cc1ccc(NC(=O)COc2ccc(-c3nn(C)c(=O)c4ccccc34)cc2)c(C)c1` as the compound, how does the survival read?
Its survival is inactive: 92%.

With `Nc1c(-c2nc(-c3ccccc3Cl)no2)nnn1-c1ccccc1F` as the compound, how does the survival read?
Its survival is inactive: 91%.

For `COc1ccc(NC(=O)C(NS(=O)(=O)c2cccc3nsnc23)c2ccccc2)cc1` (centres undefined), which survival is on record?
The survival was inactive: 89%.

Which survival does the source give for `CCOc1cc(-c2nnc(SCC(=O)NCCCOC)nc2-c2ccc(OC)c(OCC)c2)ccc1OC` here?
The survival was inactive: 75%.

With `Cn1cc(S(=O)(=O)N2CCCCC2)cc1C(=O)NCc1ccc(Cl)cc1` as the compound, how does the survival read?
Its survival is inactive: 88%.

With `CCC(=O)Nc1nnc(S(=O)(=O)N2CCCCCC2)s1` as the compound, how does the survival read?
Its survival is inactive: 84%.

`CCCCSc1nnc2c(n1)OC(c1ccc(C)s1)Nc1ccccc1-2` (centres undefined) was tested. Which survival did it give?
The survival was inactive: 56%.

For `CCC(CC)c1nn2cc(-c3ccccc3)nc2s1`, which survival is on record?
The survival was inactive: 100%.

How did the survival turn out when `Cc1ccc(N2CCN(S(=O)(=O)c3cc(Br)cc4c3N(C(=O)C3CC3)CC4)CC2C)cc1` (centres undefined) was run?
Its survival is inactive: 68%.

How did the survival turn out when `CCCN(C(=O)c1cn(CC(C)C)c(=O)c2cc(OC)c(OC)cc12)c1cccc(C)c1` was run?
Its survival is inactive: 138%.

For `COc1ccc(-c2cn3c(n2)sc2cc(C(=O)N4CCCCC4)ccc23)cc1`, which survival is on record?
The survival was inactive: 79%.

With `Cc1cc(C)c2[nH]c(=O)c(CN(CCN3CCOCC3)C(=S)NCC3CCCO3)cc2c1` (centres undefined) as the compound, how does the survival read?
Its survival is inactive: 115%.

`CCS(=O)(=O)N1CC(=O)N(c2ccc(C)c(C)c2)C(C)(C(=O)NC2CCCCCC2)C1` (centres undefined) was tested. Which survival did it give?
The survival was inactive: 71%.

With `COc1ccc(N2CC(NC(=O)Cc3cccs3)CC2=O)cc1OC` (centres undefined) as the compound, how does the survival read?
Its survival is inactive: 67%.

For `Cc1cc(S(=O)(=O)Nc2ccc3[nH]c(=O)sc3c2)ccc1F`, which survival is on record?
Its survival is inactive: 73%.

Which survival does the source give for `CCCCOC(=O)c1ccc(NC(=O)/C(C#N)=C/c2ccc(C)o2)cc1` here?
The survival was inactive: 82%.

`CCc1cc2c(NCC3CCCO3)ncnc2s1` (centres undefined) was tested. Which survival did it give?
The survival was inactive: 107%.

`CCCCNS(=O)(=O)c1ccc2nc(-c3cccnc3)cc(C(=O)NCCCOCC)c2c1` was tested. Which survival did it give?
The survival was inactive: 71%.

For `Cc1ccc(NC(=O)COCc2cc(-c3cccs3)on2)cc1Cl`, which survival is on record?
The survival was inactive: 65%.

For `CCOc1ccccc1CNC(=O)CCn1cccn1`, which survival is on record?
Its survival is inactive: 93%.

`Cc1[nH]c2ccccc2c1C(=O)C(=O)NC1CC(=O)N(c2ccccc2)C1` (centres undefined) was tested. Which survival did it give?
Its survival is inactive: 83%.

For `CCc1ccccc1N1C(=O)N(C)c2ccccc2S1(=O)=O`, which survival is on record?
Its survival is inactive: 66%.

Which survival does the source give for `COC(=O)c1ccc(NC(=O)CN(c2cccc(C(F)(F)F)c2)S(C)(=O)=O)cc1` here?
Its survival is inactive: 88%.

How did the survival turn out when `Cc1cccc(-n2c(SCC(=O)Nc3ccccc3C)nc3c(oc4ccccc43)c2=O)c1` was run?
Its survival is inactive: 86%.

`CCCN(CCC)CCCNC(=O)C1CCN(S(=O)(=O)c2cccc3nsnc23)CC1` was tested. Which survival did it give?
Its survival is inactive: 90%.

Which survival does the source give for `CCOc1ccc(S(=O)(=O)N2CCN(c3ccc(C)cc3C)CC2)c2ccccc12` here?
The survival was inactive: 81%.

With `COc1cccc(CSc2nc(-c3ccccc3OC)nc3c2Cc2c(CO)cnc(C)c2O3)c1` as the compound, how does the survival read?
Its survival is inactive: 78%.

Which survival does the source give for `COc1cc(C2/C(=C(\O)c3ccccc3)C(=O)C(=O)N2CCC(=O)O)ccc1O` (centres undefined) here?
Its survival is inactive: 102%.

With `CSc1nn(Cc2ccc(F)cc2)c(N)c1S(=O)(=O)c1ccc(Cl)cc1` as the compound, how does the survival read?
The survival was inactive: 78%.

For `O=C1COc2ccc(-c3cc(-c4ccc(F)cc4)c4c(n3)-c3ccccc3OC4)cc2N1`, which survival is on record?
Its survival is inactive: 80%.

With `CCN(C(=O)c1ccc2c(=O)n3c(nc2c1)CCCCC3)c1cc(C)ccc1C` as the compound, how does the survival read?
Its survival is inactive: 73%.

With `CCc1nc(SCc2ccccc2)[nH]c(=O)c1C` as the compound, how does the survival read?
The survival was inactive: 102%.

With `CCC(=O)N1CCc2cc(S(=O)(=O)NC(C(=O)NCCc3ccc(C)cc3)C(C)C)ccc21` (centres undefined) as the compound, how does the survival read?
The survival was inactive: 92%.

How did the survival turn out when `CCCOc1cccc(C2c3c(oc4cc(C)c(C)cc4c3=O)C(=O)N2CCCN2CCOCC2)c1` (centres undefined) was run?
Its survival is inactive: 78%.

How did the survival turn out when `CSc1cccc(NC(=O)CN(C)S(=O)(=O)c2ccc3c(c2)CCCN3C(C)=O)c1` was run?
The survival was inactive: 70%.

With `Cc1ccc(-c2nc3cc(NC(=O)c4cc(Br)ccc4Cl)ccc3o2)cc1` as the compound, how does the survival read?
The survival was inactive: 85%.

With `CCOc1ccccc1C(=O)N1CCCCC1CCN1CCOCC1` (centres undefined) as the compound, how does the survival read?
The survival was inactive: 85%.

With `Cc1ccc(-c2n[nH]c3c2C(c2cccs2)N(c2ccc(Cl)cc2)C3=O)cc1` (centres undefined) as the compound, how does the survival read?
Its survival is inactive: 80%.

How did the survival turn out when `Cc1ccc(C)c(C(=O)CSc2nc3cc(C(=O)NC4CCCC4)ccc3c(=O)n2CC2CCCO2)c1` (centres undefined) was run?
Its survival is inactive: 85%.

Which survival does the source give for `COCc1cc(C)n(CC(=O)Nc2cccc(C(C)=O)c2)c(=O)c1C#N` here?
The survival was inactive: 81%.

Which survival does the source give for `CC(C)CCNC(=O)c1ccc2c(c1)N(C)C(=O)c1ccccc1S2` here?
The survival was active: -6%.

How did the survival turn out when `CC1CCN(S(=O)(=O)c2cn(CC(=O)Nc3ccc(F)cc3)c(=O)c3ccccc23)CC1` was run?
Its survival is inactive: 67%.

`CC(C)c1nn2c(=O)cc(COC(=O)c3ccccc3Cl)nc2s1` was tested. Which survival did it give?
The survival was inactive: 69%.

`COc1ccc(N2CCN(Cc3nc(-c4ccc(C)cc4)no3)CC2)cc1` was tested. Which survival did it give?
Its survival is inactive: 74%.

With `CCOc1cc2[nH]c(=O)n(CCCCCC(=O)NC(C)CC)c(=O)c2cc1OCC` (centres undefined) as the compound, how does the survival read?
The survival was inactive: 74%.

With `CCn1cc2nc(SCc3cccc(F)c3)n(CCc3ccccc3)c(=O)c2n1` as the compound, how does the survival read?
Its survival is inactive: 70%.

`CCC(Cc1ccccc1)NC(=O)Cn1ncc2c3ccccc3n(Cc3ccc(F)cc3)c2c1=O` (centres undefined) was tested. Which survival did it give?
The survival was inactive: 131%.

With `O=C(Nc1cnn(C23CC4CC(CC(C4)C2)C3)c1)c1cc(-c2ccccc2)on1` as the compound, how does the survival read?
The survival was inactive: 120%.

For `O=C(O)CCn1ccc2cc(S(=O)(=O)N3CCCCC3)ccc21`, which survival is on record?
Its survival is inactive: 114%.

`COc1ccc(Cl)cc1NC(=O)CCCS(=O)(=O)c1nc(-c2ccc(OC)c(OC)c2)cc(C(F)(F)F)n1` was tested. Which survival did it give?
The survival was inactive: 79%.

For `Cc1cc(C)n2c(Nc3cccc(C(F)(F)F)c3)c(-c3ccsc3)nc2n1`, which survival is on record?
Its survival is inactive: 89%.

`Cc1nnc(NC(=O)CSCc2cc(=O)c3ccc(C)c(C)c3[nH]2)s1` was tested. Which survival did it give?
The survival was inactive: 102%.

How did the survival turn out when `O=C(NCc1ccccc1Cl)C1CCN(c2ncnc3c2nc2n3CCCCC2)CC1` was run?
Its survival is inactive: 82%.

How did the survival turn out when `COc1ccc(-c2csc(-c3c(N)c(C(=O)c4ccccc4)n4ccccc34)n2)cc1` was run?
The survival was inactive: 67%.

`Cc1ccc2oc(=O)c3cc(C(=O)Nc4cccc(C#N)c4)sc3c2c1` was tested. Which survival did it give?
The survival was inactive: 92%.

For `Cc1ccccc1-c1nnc(SCC(=O)N2CCCc3ccccc32)n1C`, which survival is on record?
The survival was inactive: 98%.

`CC(C)c1ccc(S(=O)(=O)c2cnc(SCC(=O)Nc3ccc(F)cc3F)nc2N)cc1` was tested. Which survival did it give?
Its survival is inactive: 87%.

With `Cc1ccc(-n2nc3c(N4CCC(C(=O)NCCC(C)C)CC4)nnc(C)c3c2C)cc1` as the compound, how does the survival read?
Its survival is inactive: 120%.

With `CCOc1ccccc1NC(=O)c1nnn(CC(=O)Nc2ccccc2CC)c1N` as the compound, how does the survival read?
The survival was inactive: 82%.

With `COc1ccc(NC(=O)c2[nH]nc3c2CSc2ccccc2-3)c(OC)c1` as the compound, how does the survival read?
The survival was inactive: 87%.

`CCC(=O)N1c2ccccc2CC1C(=O)NCCc1ccc(Cl)cc1` (centres undefined) was tested. Which survival did it give?
Its survival is inactive: 135%.

How did the survival turn out when `COc1ccc(C2(NC(=O)c3ccc(Cn4cc(Cl)cn4)o3)CCCCC2)cc1` was run?
Its survival is inactive: 117%.

Which survival does the source give for `O=C(Cn1nnnc1-c1ccccc1F)Nc1ccc(F)c(F)c1` here?
Its survival is inactive: 85%.

How did the survival turn out when `Cc1cc(C)cc(-n2ccnc2SCC(=O)Nc2ccc(C)c(Cl)c2)c1` was run?
The survival was inactive: 66%.

How did the survival turn out when `CC(=O)Nc1ccc(-c2nn3c(C)nnc3s2)cc1` was run?
The survival was inactive: 103%.

How did the survival turn out when `O=C(NCCc1ccccc1)C1COc2ccccc2C1` (centres undefined) was run?
The survival was active: 10%.

How did the survival turn out when `CCOC(=O)N1CCc2c(sc3c2c(=O)n(-c2ccc(F)cc2)c(=O)n3CC(=O)c2ccccc2)C1` was run?
Its survival is inactive: 85%.

For `Cc1cccc(CN2C(=O)c3ccccc3Sc3ccc(C(=O)NCc4cccs4)cc32)c1`, which survival is on record?
The survival was inactive: 74%.

With `O=C(Oc1ccc(OC(=O)N2CCOCC2)cc1)N1CCOCC1` as the compound, how does the survival read?
The survival was inactive: 128%.

With `CCOC(=O)c1c(C)n(-c2ccccc2)c2ccc(OC(=O)c3cc(OC)cc(OC)c3)cc12` as the compound, how does the survival read?
Its survival is inactive: 63%.

For `O=C(Nc1sc2c(c1C(=O)NCCc1ccccc1)CCC2)c1ccco1`, which survival is on record?
Its survival is inactive: 115%.

For `CCc1ccc(NC(=O)c2cc(C)nn2-c2ccccc2)cc1`, which survival is on record?
The survival was inactive: 78%.

`Cc1cc(=O)n(CC(=O)NC(C)c2ccccc2)c2c1c(C)nn2C` (centres undefined) was tested. Which survival did it give?
The survival was inactive: 65%.

How did the survival turn out when `CCOC(=O)c1c(NC(=O)c2cc3ccccc3c(=O)o2)sc2c1CCC(C(C)(C)C)C2` (centres undefined) was run?
Its survival is inactive: 69%.

`CCc1cccc(C)c1NC(=O)C(CC)Sc1nncn2c1cc1occc12` (centres undefined) was tested. Which survival did it give?
The survival was inactive: 78%.

Which survival does the source give for `CCC(=O)Nc1cc(-c2nc3ccccc3s2)c(Cl)cc1Cl` here?
The survival was inactive: 115%.

Which survival does the source give for `Cc1ccc(Nc2nc(C)c(NC(=O)c3ccc(C)cc3)c(Nc3ccc(C)cc3)n2)cc1` here?
Its survival is inactive: 135%.

For `CCOc1ccc(C(=O)Nc2ccc3oc(-c4ccncc4)nc3c2)cc1`, which survival is on record?
The survival was inactive: 72%.

How did the survival turn out when `CCS(=O)(=O)N1CCc2cc(C(=O)Nc3cc(OC)c(Cl)cc3OC)ccc21` was run?
Its survival is inactive: 75%.

`CCOc1ccc(NC(=O)CCNS(=O)(=O)c2cccc3nsnc23)cc1` was tested. Which survival did it give?
The survival was inactive: 61%.

How did the survival turn out when `Cc1ccc(NC(=O)Cn2cc(C(=O)C3CCCCC3)c3ccccc32)c(C)c1` was run?
Its survival is inactive: 65%.

For `Cn1c(=O)n(C)c2cc(NS(=O)(=O)c3ccc(C(C)(C)C)cc3)c(NCc3ccccc3)cc21`, which survival is on record?
The survival was inactive: 76%.

`Cc1cccc(C(=O)Nc2nnc(S(=O)(=O)N3CCCc4ccccc43)s2)c1` was tested. Which survival did it give?
Its survival is inactive: 27%.

How did the survival turn out when `COc1ccc(NC(=O)c2oc3ccccc3c2NC(=O)COc2ccc(F)cc2)c(OC)c1` was run?
Its survival is inactive: 79%.

`CCCNc1nc2c(c(=O)n(C)c(=O)n2C)n1CC(O)COc1ccccc1` (centres undefined) was tested. Which survival did it give?
The survival was inactive: 71%.

From PubChem BioAssay AID463173 (ICCB-Longwood Screening Facility, Harvard Medical School, 2010)
